Over roughly 33,000 sequences, “E-score (-0.5 to 0.5)” has its median near -0.017; the highest 2% begin near 0.3. The list shows a part of the results.

The assay concerns the target T1, Sut1 (UniProt P53032).
T1 sequence: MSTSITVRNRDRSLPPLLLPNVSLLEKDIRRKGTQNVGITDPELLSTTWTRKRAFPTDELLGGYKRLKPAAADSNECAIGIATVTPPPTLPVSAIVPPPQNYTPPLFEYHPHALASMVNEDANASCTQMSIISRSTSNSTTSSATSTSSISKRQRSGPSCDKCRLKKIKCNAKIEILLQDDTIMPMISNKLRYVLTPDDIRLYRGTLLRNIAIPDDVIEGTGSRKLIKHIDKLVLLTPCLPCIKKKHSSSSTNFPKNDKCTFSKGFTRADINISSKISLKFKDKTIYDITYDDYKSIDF
The assay can be described thus: PBM E-score (8-mer binding enrichment) (E-score (-0.5 to 0.5)); higher = stronger / more preferred TF binding; most listed sequences are background and not binding sites. Conditions: protein concentration: 200 nM; construct: GST-full length. The method, boiled down: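 Using PURExpress in vitro transcription/translation, GST-tagged yeast transcription factors were made in full-length or DNA-binding-domain form. These were applied at about 100-200 nM to double-stranded universal all-10-mer Agilent arrays, and bound protein was detected with fluorescent anti-GST. Scans were normalised with masliner before the Universal PBM Analysis Suite assigned E-scores to ungapped eight-base words pooled with their reverse complements.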
For CTTCCGAA, the “PBM E-score” value worked out at 0.233. As for GCATCGAC, the “PBM E-score” value was -0.167. For TAACCCCA, the “PBM E-score” value is -0.072. For CGGCCACC, the “PBM E-score” value was -0.0332. Regarding CCAATGAC, the “PBM E-score” value was -0.0884. CATACGCG: the “PBM E-score” value is -0.172. The figure for GCCATGAA is 0.0219; for GGAGACGA it is 0.0626. The figure for CCCTTGCA is -0.258. GTCAGACA: the “PBM E-score” value was -0.111. Take ATGCGGCC: the “PBM E-score” value is -0.208.

For the sequence ACACGGCT, the “PBM E-score” value was -0.139. Turning to ATACCAAC, the “PBM E-score” value stood at 0.0245. Turning to AATTGCTG, the “PBM E-score” value came out at 0.0942. In the case of CCGCTGGA, the “PBM E-score” value is -0.0401. The figure for CGTAATAC is 0.129; for ACCCCGTG it is 0.19. As for ATTATTCG, the “PBM E-score” value amounted to 0.277. On to CGAGCGAG, for which the “PBM E-score” value was 0.196.

In the case of GTAAGGAA, the “PBM E-score” value is -0.0925. Take GTAGCATA: the “PBM E-score” value is -0.00127. In the case of TTAAAAAA, the “PBM E-score” value came to 0.282. The figure for CACACTAC is -0.171. As for AATTTAAC, the “PBM E-score” value came out at 0.255. In the case of CATGTGCC, the “PBM E-score” value was -0.156.

Turning to CCGTATCC, the “PBM E-score” value came out at 0.0473. Turning to ATCCACGG, the “PBM E-score” value turned out to be 0.102. For GTCCCGTA, the “PBM E-score” value is -0.143.

As to CCCATGGC, the “PBM E-score” value is -0.293. The figure for GTCAAACA is -0.0968; for AATTTGCA it is 0.126. In the case of GCGTAACA, the “PBM E-score” value was -0.0695. With ATAAACAA, the “PBM E-score” value was determined as 0.275.

For the sequence AGTTTGTG, the “PBM E-score” value is 0.0471. As to CTCATGAA, the “PBM E-score” value was -0.0491. With AGGGATAT, the “PBM E-score” value is -0.0535. As to CTCCTTCA, the “PBM E-score” value was -0.116.

With CAGGGGCA, the “PBM E-score” value was -0.253. As to GTACATTA, the “PBM E-score” value turned out to be 0.215. As to AAGGATTA, the “PBM E-score” value amounted to 0.0709.

As to AGGTTGAC, the “PBM E-score” value is -0.0882. As to ATCAGACA, the “PBM E-score” value is -0.0432. Turning to AACTTGCG, the “PBM E-score” value was -0.0193. As to CTAGTTAC, the “PBM E-score” value is -0.0636.

CATCAGGG: the “PBM E-score” value was -0.149.

For AGCAACCG, the “PBM E-score” value was -0.0232.

On to CCGATCCA, for which the “PBM E-score” value was -0.0263. Take AATCGGCC: the “PBM E-score” value is -0.109. With ACCCTCCA, the “PBM E-score” value was -0.279.

For GGTGATTA, the “PBM E-score” value is 0.0889. Consider AACGGGCT, for which the “PBM E-score” value was -0.0517. As to CAGGTGAG, the “PBM E-score” value was -0.208. The figure for GGCAATGA is -0.00098; for GAGTCGCA it is -0.207. As for AAAGTTTC, the “PBM E-score” value is 0.161. With CTGACTTC, the “PBM E-score” value was -0.061. The figure for GGCCCCAC is -0.306; for CAAGTACA it is -0.05; for CACGCTGG it is -0.177. As for ACATATTC, the “PBM E-score” value was 0.182. As for CAGACGGA, the “PBM E-score” value amounted to 0.131. As to ACTAGCAT, the “PBM E-score” value is -0.274.

Take AAACCTGT: the “PBM E-score” value is -0.00648. The figure for AGGCGTAA is 0.0295. AAGGCATG: the “PBM E-score” value is -0.119. Take CGCATACC: the “PBM E-score” value is -0.118. The figure for CCAACGTC is -0.231; for CCTTCTCC it is 0.0483. Regarding AACGAAGC, the “PBM E-score” value turned out to be 0.0071.

CGACACGA: the “PBM E-score” value is -0.0752. On to CTCAATTA, for which the “PBM E-score” value was 0.0777. For the sequence CTAATAAG, the “PBM E-score” value came to 0.0561.

Take ACCTGCAT: the “PBM E-score” value is -0.0248. For the sequence AGGCAGTC, the “PBM E-score” value was -0.102. For the sequence GGTCCGCA, the “PBM E-score” value was 0.241. On to ATCCTCAT, for which the “PBM E-score” value was -0.0846.

Turning to AGTGTTAG, the “PBM E-score” value came out at 0.0669. In the case of TCAGGCCA, the “PBM E-score” value was -0.26. In the case of CCACGGCA, the “PBM E-score” value was -0.014. The figure for AGTCATTG is -0.029; for ATACCTTA it is 0.146; for TAAGGCAA it is -0.0343. Regarding AGATACCA, the “PBM E-score” value is 0.0776. For CCATGTAA, the “PBM E-score” value was -0.0163. The figure for AGCGGAAA is 0.244; for ACTCTCAT it is 0.0885.
